According to PubChem BioAssay AID651820 (National Center for Advancing Translational Sciences (NCATS), 2012):
Hit rate of the full screen: of about 340,000 compounds, about 12,000 (3.5%) were called active. This list was built around the results that the source calls inconclusive (neither active nor inactive); the mix of calls is not that of the screen. Calls follow the shape of the dose curve; as a rule, active = well fitted inhibition curve with a large enough effect; inconclusive = small, poorly fitted or top-dose-only effect, or another doubt; inactive = no such curve, though single readings can be large or run the other way. No potency is given beside an inconclusive call; the fits are too rough.

experiment: qHTS Assay for Inhibitors of Hepatitis C Virus (HCV); settings: Huh7.5.1 HCVcc-Cre (HCVcc is cell-culture hepatitis C virus) infection, luciferase reporter, 44 h; series mostly up to 41.8 µM
In short: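 A cell-based infection assay in which seeded cells (1,000 per well) receive test compound after 4 h, are inoculated with HCVcc-Cre at approximately 0.5 moi, and are incubated 44 h before luminescence detection.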
Potency is read from the fitted curve at half-maximal effect; tags tell the direction and shape of the fitted curve.

Question: Which Potency does the source give for `c1ccc(-c2ccccc2OCCOCCN2CCCCC2)cc1` here?
Answer: The Potency was inconclusive [inhibitor, single point].

Question: For `COc1ccc(C(=O)O)cc1S(=O)(=O)Nc1ccc2cn[nH]c2c1`, which Potency is on record?
Answer: Its Potency is “inactive”.

Question: With `O=C(Nc1cccc(C(=O)N2CCCC2)c1)C1CCCCC1` as the compound, how does the Potency read?
Answer: Its Potency is “inactive”.

Question: Which Potency does the source give for `COc1ccc2[nH]c(C)c(CCN(Cc3cccs3)C(=S)Nc3cccc(F)c3)c2c1` here?
Answer: Its Potency is inconclusive [inhibitor, single point].

Question: Which Potency does the source give for `COc1cc2c(C#N)c(N3CCOCC3)nc(N)c2c(N)n1` here?
Answer: The Potency was inconclusive [inhibitor, single point].

Question: With `CCN1C(=O)C(CC(=O)Nc2ccc(OC)cc2)N(Cc2ccc3c(c2)OCO3)C1=S` (configuration not stated) as the compound, how does the Potency read?
Answer: The Potency was inconclusive [inhibitor, single point].

Question: Which Potency does the source give for `O=C(Nc1ccc(Cl)c(S(=O)(=O)N2CCOCC2)c1)c1ccc(Cl)nc1` here?
Answer: Its Potency is active: 11.2 µM.

Question: With `COc1ccc(CC(=O)Nc2ccc3c(C(F)(F)F)cc(=O)oc3c2)cc1OC` as the compound, how does the Potency read?
Answer: The Potency was inconclusive [inhibitor, partial curve].

Question: Which Potency does the source give for `C[C@]12CC[C@H](O)C[C@H]1CC[C@@H]1[C@@H]2C[C@@H](O)[C@]2(C)[C@@H](C3=CC(=O)OC3)CC[C@]12O` here?
Answer: Its Potency is active: 0.562 µM.

Question: For `CC/C(=C\C=C\[C@@H]1C=C[C@@H]2CCC[C@H]2[C@@H]1C(=O)c1ccc[nH]1)[C@@H]1O[C@@H]([C@@H](C)C(=O)O)CC[C@@H]1C`, which Potency is on record?
Answer: The Potency was inconclusive [inhibitor, single point].

Question: With `CCCCCn1nc(C(=O)OCC(=O)c2c(N)n(C)c(=O)n(C)c2=O)c2ccccc2c1=O` as the compound, how does the Potency read?
Answer: Its Potency is inconclusive [inhibitor, full curve].

Question: For `CS(=O)(=O)Nc1cccc(C2=NN(C(=O)c3cccc([N+](=O)[O-])c3)C(c3cccs3)C2)c1` (configuration not stated), which Potency is on record?
Answer: Its Potency is inconclusive [inhibitor, single point].

Question: With `Nc1nc(NCC2CCCO2)nc(Nc2ccccc2)c1[N+](=O)[O-]` (configuration not stated) as the compound, how does the Potency read?
Answer: Its Potency is “inactive”.

Question: For `N#Cc1ccc(OCC(=O)N2CCN(S(=O)(=O)c3cccc(Cl)c3)CC2)cc1`, which Potency is on record?
Answer: Its Potency is “inactive”.

Question: Which Potency does the source give for `CC(C)[C@H](NC(=O)[C@@H]1CSC2c3ccccc3C(=O)N21)C(=O)NC1CCCCC1` (some centres not stated) here?
Answer: The Potency was “inactive”.

Question: With `Cn1c(=O)n(C)c2cc(NC(=O)CSc3nnc(-c4ccccc4O)n3-c3ccccc3)ccc21` as the compound, how does the Potency read?
Answer: Its Potency is inconclusive [inhibitor, single point].

Question: With `COc1cccc(CN2CC(C(=O)NCCn3ccc(C)n3)CCC2=O)c1` (configuration not stated) as the compound, how does the Potency read?
Answer: The Potency was “inactive”.

Question: Which Potency does the source give for `Cc1cc(C)nc(SCC(=O)Nc2ccnc3ccccc23)n1` here?
Answer: The Potency was active: 1.78 µM.

Question: With `COc1ccc(CC(=O)Nc2ccc(S(=O)(=O)N3CCCC3)cc2)cc1OC` as the compound, how does the Potency read?
Answer: The Potency was inconclusive [inhibitor, partial curve].

Question: For `O=C(c1ccccn1)N(Cc1cccs1)C1(C(=O)NC2CCCCC2)CCCCC1`, which Potency is on record?
Answer: The Potency was active: 11.2 µM.

Question: For `Cc1ccc(C(=O)NCC(=O)OCC(=O)c2c(N)n(C)c(=O)n(C)c2=O)cc1C`, which Potency is on record?
Answer: Its Potency is “inactive”.

Question: With `O=C(CSc1nc2c([nH]c3ccccc32)c(=O)n1-c1ccccc1)N1CCOCC1` as the compound, how does the Potency read?
Answer: The Potency was inconclusive [inhibitor, full curve, poor fit].

Question: For `CSc1ccc(CN2CCN(Cc3ccccc3)C(CCO)C2)cc1` (configuration not stated), which Potency is on record?
Answer: The Potency was “inactive”.

Question: With `CCc1ccc(-c2nc(CS(=O)CC(=O)NCCCN3CCC(C)CC3)c(C)o2)cc1` (configuration not stated) as the compound, how does the Potency read?
Answer: The Potency was inconclusive [inhibitor, partial curve].

Question: With `NS(=O)(=O)c1ccc(NC(=S)Nc2ccc(C(=O)N3CCCCC3)cc2)cc1` as the compound, how does the Potency read?
Answer: Its Potency is “inactive”.

Question: With `CCOC(=O)c1c(-c2ccccc2)nc2ccc(C)cn12` as the compound, how does the Potency read?
Answer: The Potency was inconclusive [inhibitor, single point].

Question: Which Potency does the source give for `CSc1ccc(/C=C/c2cc(=O)c3ccccc3[nH]2)cc1` here?
Answer: Its Potency is inconclusive [inhibitor, single point].

Question: With `NNC(=O)c1sc2nc(N3CCOCC3)c3c(c2c1N)CCCC3` as the compound, how does the Potency read?
Answer: Its Potency is inconclusive [inhibitor, single point].

Question: For `COc1cc(S(=O)(=O)Nc2ncccc2C)c(OC)cc1Cl`, which Potency is on record?
Answer: The Potency was “inactive”.

Question: Which Potency does the source give for `Cc1ccc(C(=O)COC(=O)CN2C(=O)C3CC=CCC3C2=O)cc1[N+](=O)[O-]` (configuration not stated) here?
Answer: Its Potency is “inactive”.

Question: For `Cc1ccc(O)c(NC(=O)c2cc(-c3ccccc3Cl)on2)c1`, which Potency is on record?
Answer: The Potency was “inactive”.

Question: Which Potency does the source give for `NS(=O)(=O)c1cnccc1NCCc1ccccc1` here?
Answer: The Potency was “inactive”.

Question: For `O=C(CN1CCC(c2nc3ccccc3s2)CC1)N1CCCCC1`, which Potency is on record?
Answer: The Potency was inconclusive [inhibitor, single point].

Question: For `CCCCC1=CC2=CC(=O)C(C)(OC(=O)CC)C(=O)C2=CN1c1ccc(OC)cc1` (configuration not stated), which Potency is on record?
Answer: Its Potency is “inactive”.

Question: Which Potency does the source give for `CC(=O)N1CCCc2cc(S(=O)(=O)NCc3ccc(C)cc3)ccc21` here?
Answer: The Potency was inconclusive [inhibitor, single point].

Question: For `CC1CCN(c2ccc(C(=O)NCc3cccs3)cn2)CC1`, which Potency is on record?
Answer: The Potency was inconclusive [inhibitor, partial curve, poor fit].

Question: With `CC(C)=CCc1cc([C@@H]2COc3c(ccc4c3C=CC(C)(C)O4)C2)c(O)cc1O` as the compound, how does the Potency read?
Answer: Its Potency is inconclusive [inhibitor, single point].

Question: Which Potency does the source give for `COc1ccccc1CCNC(=O)c1cc(-c2ccccn2)nc2ccccc12` here?
Answer: Its Potency is active: 11.2 µM.

Question: With `Cc1cccc2cc3c(N)c(C(=O)N4CCOCC4)sc3nc12` as the compound, how does the Potency read?
Answer: Its Potency is inconclusive [inhibitor, partial curve].

Question: Which Potency does the source give for `Cc1ccc(NC(=O)c2c(-c3c(F)cccc3Cl)noc2C)cc1F` here?
Answer: The Potency was inconclusive [inhibitor, single point].

Question: Which Potency does the source give for `COCCn1nnnc1C(c1ccc(C)cc1)N1CCN(Cc2ccc3c(c2)OCO3)CC1` (configuration not stated) here?
Answer: The Potency was “inactive”.

Question: For `CCCCCCCn1ccc(O)c(CC(=O)OC)c1=O`, which Potency is on record?
Answer: The Potency was “inactive”.

Question: For `N=c1sccn1CC(=O)Nc1ccccc1Sc1ccccc1`, which Potency is on record?
Answer: The Potency was “inactive”.

Question: With `CC(C)(C)c1ccc(C(=O)OCC(=O)N2CCC(c3ccccc3)=N2)cc1` as the compound, how does the Potency read?
Answer: Its Potency is “inactive”.

Question: With `COc1ccc(NC(=O)c2cc(C)no2)cc1OC` as the compound, how does the Potency read?
Answer: The Potency was “inactive”.

Question: For `CCOc1cc2sc(N3CCC(C(=O)NCCCN4CCCC4=O)CC3)nc2cc1Br`, which Potency is on record?
Answer: The Potency was inconclusive [inhibitor, partial curve].

Question: Which Potency does the source give for `Cc1ccc(-c2cc(C(=O)NC3CCN(Cc4ccccc4)CC3)c3ccccc3n2)cc1` here?
Answer: Its Potency is inconclusive [inhibitor, single point].
